Screen size: about 390,000 compounds; about 930 (0.24%) were called active. This list was built around the results that the source calls inconclusive (neither active nor inactive); the mix of calls is not that of the screen. Calls follow the shape of the dose curve; as a rule, active = well fitted activation curve with a large enough effect; inconclusive = small, poorly fitted or top-dose-only effect; inactive = no such curve, though single readings can be large or run the other way. Potencies of inconclusive entries are doubtful fits and often do not repeat.
Assay: qHTS for Suppressors of FUS Proteinopathy: Primary screen using FUS-linked yeast assay; also: nearly all actives have a fitted effect of over 55% in size;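 as to growth rescue (activation): plate controls were DMSO vehicle for no effect and reference control for full effect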
Conditions: S. cerevisiae FUS-expressing, OD600, 24 h; Potency: growth rescue; growth rescue (activation): at 76.6 µM (top of the series)
How it was run: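 Toxicity suppression screen in FUS-yeast. Cells induced with 2% galactose, starting OD 0.005, treated 24hr at 30C with compounds at multiple final concentrations; growth by OD600.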
Potency is read from the fitted curve at half-maximal effect; tags tell the direction and shape of the fitted curve.

Q: For Cc1ccc(NS(=O)(=O)c2ccc3c(c2)CCCN3C(=O)C2CCC2)c(C)c1, which Potency is on record?
A: The Potency was inconclusive: 31.6 µM [activator, single point].

Q: For N#Cc1cc(O)c(-n2nnc3ccccc32)cc1C#N, which Potency is on record?
A: Its Potency is “inactive”.

Q: With CCOC(=O)c1sc(N2C(=O)C(O)=C(C(=O)c3ccco3)C2c2cccc([N+](=O)[O-])c2)nc1C (centres undefined) as the compound, how does the Potency read?
A: Its Potency is inconclusive: 50.1 µM [activator, single point].

Q: For Cc1cc(C)n(-c2ccc(C(=O)Nc3ccc(C)c(S(=O)(=O)N(C)C)c3)cc2)n1, which Potency is on record?
A: Its Potency is “inactive”.

Q: Which Potency does the source give for COc1ccccc1NC(=O)c1ccc(S(=O)(=O)N(C)c2ccccc2OC)cc1 here?
A: The Potency was inconclusive: 25.1 µM [activator, single point].

Q: For CCOC(=O)c1cccc(NC(=O)NCc2ccc3c(c2)CCN3C(=O)c2ccccc2)c1, which Potency is on record?
A: The Potency was inconclusive: 7.08 µM [activator, partial curve].

Q: For CCOC(=O)N1CCc2c(sc(NCc3cc(OC)c(OC)cc3OC)c2C(=O)Nc2ccc(OCC)cc2)C1, which Potency is on record?
A: The Potency was inconclusive: 31.6 µM [activator, single point].

Q: Which Potency does the source give for Cc1c(O)c2c(=O)n(-c3ccccc3)c(-c3ccccc3)cc2oc1=O here?
A: Its Potency is “inactive”.

Q: For O=C1CCCC2=C1C1c3ccccc3C(=O)N1c1ccc(C(=O)c3ccccc3)cc1N2 (centres undefined), which Potency is on record?
A: The Potency was inconclusive: 35.5 µM [activator, partial curve, poor fit].

Q: With CC(C)(C)OC(=O)C[C@@H]1C/C=C\C[C@@H](CC(=O)N(CCO)Cc2ccccc2)C(=O)N[C@H](C(C)(C)C)COC1=O as the compound, how does the Potency read?
A: Its Potency is inconclusive: 10 µM [activator, partial curve].

Q: With O=S(=O)(Nc1ccc2c(c1)OCCO2)c1cccc(F)c1 as the compound, how does the Potency read?
A: Its Potency is “inactive”.

Q: With Cc1ccc(NC(=O)c2sc3nc4c(cc3c2N)CN(Cc2ccccc2)CC4)cc1 as the compound, how does the Potency read?
A: The Potency was inconclusive: 25.1 µM [activator, single point].

Q: For c1ccc2c(Nc3ccc(N4CCOCC4)cc3)nc(N3CCOCC3)nc2c1, which Potency is on record?
A: Its Potency is “inactive”.

Q: With CCOC(=O)c1cc2c(C(F)(F)F)cc(-c3cccnc3)nc2o1 as the compound, how does the Potency read?
A: Its Potency is “inactive”.

Q: With COc1cccc2sc3ccc(NCc4ccc5c(c4)OCO5)cc3c(=O)c12 as the compound, how does the Potency read?
A: The Potency was inconclusive: 50.1 µM [activator, single point].

Q: With COc1ccc(NC(=O)c2c(-c3ccc(C)cc3)nnc3ccccc23)c(OC)c1 as the compound, how does the Potency read?
A: The Potency was inconclusive: 35.5 µM [activator, single point].

Q: With Cc1ccccc1Cn1c(CN2CCC(C(=O)NCCc3ccccc3)CC2)cc2ccccc21 as the compound, how does the Potency read?
A: Its Potency is “inactive”.

Q: With CSc1nc(-c2ccc(Cl)cc2)nc(N)c1C#N as the compound, how does the Potency read?
A: Its Potency is “inactive”.

Q: For Cc1ccc(C(=O)N2c3ccccc3N=C(c3ccccc3)C2C(=O)NC(C)C)cc1 (centres undefined), which Potency is on record?
A: Its Potency is inconclusive: 15.8 µM [activator, partial curve, poor fit].

Q: For CCCCNc1nc(Nc2ccc(C)c(Cl)c2)c2cnn(C)c2n1, which Potency is on record?
A: The Potency was inconclusive: 28.2 µM [activator, single point].

Q: Which Potency does the source give for COC(=O)c1ccc(OCC2c3cc(OC)c(OC)cc3CCN2C(=O)c2ccc(F)cc2)cc1 (centres undefined) here?
A: The Potency was inconclusive: 35.5 µM [activator, single point].

Q: For COc1ccc2nc(C)cc(N/N=C/c3cccc(OC)c3O)c2c1, which Potency is on record?
A: The Potency was inconclusive: 14.1 µM [activator, partial curve].

Q: For CCOC(=O)C(=O)N(Cc1ccccc1)c1ccccc1C(=O)Nc1cc(OC)ccc1OC, which Potency is on record?
A: Its Potency is inconclusive: 14.1 µM [activator, partial curve].

Q: Which Potency does the source give for COCCCNc1oc(-c2ccc(COc3ccc(Cl)cc3)o2)nc1C#N here?
A: Its Potency is inconclusive: 50.1 µM [activator, partial curve, poor fit].

Q: With COc1ccc(Cn2c(=O)c3oc4ccccc4c3n(Cc3ccc(Cl)cc3)c2=O)cc1 as the compound, how does the Potency read?
A: Its Potency is “inactive”.

Q: Which Potency does the source give for COCCNc1nc(NCc2ccc(NC(C)=O)cc2)c2sc(-c3ccccc3)cc2n1 here?
A: Its Potency is “inactive”.

Q: With CCn1cc(C(=O)OCC(=O)Nc2cccc(C(C)=O)c2)c(=O)c2ccc(C)nc21 as the compound, how does the growth rescue (activation) read?
A: The growth rescue (activation) was inconclusive: -41.6% [activator].

Q: With CC1(C)CC(=O)c2c(O)cc(OCC(=O)NCCc3ccc(S(N)(=O)=O)cc3)cc2O1 as the compound, how does the Potency read?
A: The Potency was “inactive”.

Q: With Cc1ccc(NC(=S)NNC(=O)C2CC2c2ccc(C)cc2)cc1 (centres undefined) as the compound, how does the Potency read?
A: Its Potency is active: 28.2 µM.

Q: Which Potency does the source give for Cc1sc2nc(COC(=O)CNC(=O)c3ccc(C(C)(C)C)cc3)[nH]c(=O)c2c1C here?
A: Its Potency is inconclusive: 28.2 µM [activator, single point].

Q: Which Potency does the source give for Cc1cc(NC(=O)C2CCN(S(=O)(=O)c3ccc(Br)s3)CC2)ccc1Br here?
A: The Potency was “inactive”.

Q: Which Potency does the source give for COc1ccc(C)cc1Nc1nc(-c2c[nH]c3ccccc23)cs1 here?
A: Its Potency is inconclusive: 31.6 µM [activator, partial curve, poor fit].

Q: Which Potency does the source give for Cc1cc(SCC(=O)NC(=O)NCc2ccco2)nc2ccccc12 here?
A: Its Potency is inconclusive: 35.5 µM [activator, single point].

Q: With Cc1ccc(NC(=O)C2CC3CCC2C3)cc1 (centres undefined) as the compound, how does the Potency read?
A: Its Potency is “inactive”.

Q: With Cc1ccc(C)c(Cn2c(C3CC(=O)N(c4ccccc4C)C3)nc3ccccc32)c1 (centres undefined) as the compound, how does the Potency read?
A: The Potency was inconclusive: 22.4 µM [activator, partial curve, poor fit].

Q: With CC(C)(C)c1ccc(C(=O)C=[N+]=[N-])cc1 as the compound, how does the Potency read?
A: Its Potency is “inactive”.

Q: For Cc1ccc(Nc2nc(C)nc(N)c2S(=O)(=O)c2ccccc2)cc1, which Potency is on record?
A: The Potency was “inactive”.

Q: Which Potency does the source give for CC1=C(C(=O)Nc2nc3ccccc3s2)C(c2ccco2)C(C#N)=C(SCC(=O)NC2CCCCC2)N1 (centres undefined) here?
A: Its Potency is inconclusive: 44.7 µM [activator, single point].

Q: For COc1ccc(S(=O)(=O)N2CCC(C(N)=O)CC2)c2ccccc12, which Potency is on record?
A: The Potency was “inactive”.

Q: For Cc1ccc(SCc2cc(=O)c3c(=O)n(-c4ccccc4)[nH]c3[nH]2)cc1, which Potency is on record?
A: Its Potency is inconclusive: 11.2 µM [activator, partial curve, poor fit].

Q: For O=C(c1ccc(COc2ccc(Cl)cc2)o1)N1CCN(Cc2ccc3c(c2)OCO3)CC1, which Potency is on record?
A: The Potency was “inactive”.

Q: With O=c1c2ccc(F)cc2sn1-c1ccccc1 as the compound, how does the Potency read?
A: Its Potency is “inactive”.

Q: For O=C(NC(=S)Nc1cccc(S(=O)(=O)NC2=NCCC2)c1)c1cc(-c2ccco2)nc2ccccc12, which Potency is on record?
A: Its Potency is inconclusive: 15.8 µM [activator, partial curve, poor fit].

Q: With COC(=O)c1ccc(C(=O)OC)c(NC(=O)Oc2ccccc2)c1 as the compound, how does the Potency read?
A: Its Potency is “inactive”.

Q: Which Potency does the source give for C[C@H](CO)N1C[C@H](C)[C@@H](CN(C)C(=O)NC2CCCCC2)Oc2ccc(NC(=O)NC3CCCCC3)cc2C1=O here?
A: The Potency was inconclusive: 10 µM [activator, partial curve].

Q: With CCOC(=O)c1c(NC(=O)COC(=O)Cn2cnc3ccccc32)sc2c1CCC(C)C2 (centres undefined) as the compound, how does the Potency read?
A: The Potency was inconclusive: 50.1 µM [activator, single point].

Q: For CC#CCCCC(=O)Nc1cc(OC)nc(OC)n1, which Potency is on record?
A: Its Potency is “inactive”.

Q: With CCN(Cc1ccccc1)C(=O)Cn1c(=O)n(-c2ccc(C)c(C)c2)c(=O)c2c(C)c(C)sc21 as the compound, how does the Potency read?
A: Its Potency is inconclusive: 25.1 µM [activator, partial curve, poor fit].

Q: Which Potency does the source give for CC(C)CCNC(=O)CN(C(=O)CCC(=O)Nc1ccccn1)c1ccc2c(c1)OCO2 here?
A: Its Potency is inconclusive: 0.794 µM [activator, full curve, poor fit].

Q: Which Potency does the source give for Cc1ccccc1N1CCN(CCN2C(=O)CC(=C3c4ccccc4-c4ccccc43)C2=O)CC1 here?
A: The Potency was inconclusive: 35.5 µM [activator, partial curve, poor fit].

Q: For O=C(Cn1nnc2ccccc21)NCc1ccccc1, which Potency is on record?
A: The Potency was inconclusive: 6.31 µM [activator, single point].

Q: For CN(C[C@H](Cc1ccccc1)N(C[C@H](Cc1ccccc1)N(CC1(c2ccccc2)CC1)N=O)N=O)N=O, which Potency is on record?
A: Its Potency is inconclusive: 28.2 µM [activator, single point].

Q: With O=c1[nH]cnc2scc(-c3ccc(-c4ccccc4)cc3)c12 as the compound, how does the Potency read?
A: The Potency was “inactive”.

Q: With CSCC[C@H](NC(=O)OC(C)(C)C)c1nnc(SCc2cccc(F)c2)o1 as the compound, how does the Potency read?
A: Its Potency is inconclusive: 25.1 µM [activator, partial curve].

Q: For CC1=C(C)C(=O)OC(C(C)C2CCC3C4CC=C5CC(OC6OC(COC7OC(CO)C(O)C(O)C7O)C(O)C(O)C6O)CC(O)C5(C)C4CCC23C)C1 (centres undefined), which Potency is on record?
A: The Potency was inconclusive: 17.8 µM [activator, partial curve].

Q: Which Potency does the source give for CN(CCc1ccccc1)C(=O)c1cccc(NC(=O)Cc2cccc(NC(=O)C3CCN(C(=O)C4CCCC4)CC3)c2)c1 here?
A: Its Potency is inconclusive: 28.2 µM [activator, single point].

Q: With O=C(Nc1nccs1)c1cc2sccc2n1Cc1ccc(F)cc1 as the compound, how does the Potency read?
A: The Potency was inconclusive: 4.47 µM [activator, full curve, poor fit].

Q: Which Potency does the source give for CC(=O)c1ccc(N2C(=O)N(CC(=O)c3ccc(F)cc3)c3ccccc3S2(=O)=O)cc1 here?
A: The Potency was inconclusive: 6.31 µM [activator, partial curve].

Q: Which Potency does the source give for C=CC[C@@H]1NN2C(=O)[C@@H](CCc3ccccc3)[C@@H]3c4ccccc4C=NN3[C@@H]2c2ccccc21 here?
A: Its Potency is inconclusive: 35.5 µM [activator, single point].

Q: Which Potency does the source give for NC(=O)[C@H](Cc1cc2ccccc2s1)NC(=O)[C@@H]1CC2(CC(c3cccc(NC(=O)[C@@H]4CCC(=O)N4)c3)=NO2)CN1C(=O)c1ccccc1 (some centres undefined) here?
A: Its Potency is active: 35.5 µM.

Q: With Cc1ccc(/C=C(/NC(=O)c2ccccc2)C(=O)NCCc2c[nH]c3ccccc23)o1 as the compound, how does the Potency read?
A: The Potency was inconclusive: 44.7 µM [activator, single point].

Q: Which Potency does the source give for CCN(CC)c1ccc(C(=C2C=CC(=[N+](CC)CC)C=C2)c2ccc(S(=O)(=O)O)cc2S(=O)(=O)[O-])cc1 here?
A: The Potency was active: 31.6 µM.

Q: For CC(C)(C)OC(=O)NCc1ccc(NC(=O)c2nc[nH]c2C(=O)N[C@@H](Cc2ccccc2)C(=O)OC(C)(C)C)cc1, which Potency is on record?
A: The Potency was inconclusive: 25.1 µM [activator, single point].

Q: For c1ccc(Oc2ncnc3sccc23)cc1, which Potency is on record?
A: Its Potency is “inactive”.
